# According to PubChem BioAssay (NCATS):
# Several values for one entry are separate records, joined by “and”; a condition that tells them apart may be missing. Equal entries are not always repeated. The inconclusive results got no clear call from the source; some entries with a clear call stand among them for comparison. For some assays here: Where the call is inconclusive, the potency comes from a doubtful curve fit. Activity calls are given as the source filed them. Unless noted, calls follow the shape of the dose curve; as a rule, active = well fitted curve in the direction sought with a large enough effect; inconclusive = small, poorly fitted or top-dose-only effect, or another doubt; inactive = no such curve, though single readings can be large; an effect the other way counts as inactive or inconclusive.
# Legend:
# [1] = biological target: Cytochrome P450 2D6 (Homo sapiens) (UniProt P10635); experiment: Cytochrome P450 family 2 subfamily D member 6 (CYP2D6) small molecule antagonists: luciferase biochemical (cell-free) qHTS assay (AID 1645840; active = well fitted curve in the direction sought with a large enough effect in the repeat runs; inconclusive = weak or mixed curves; inactive = no such curve, though single readings can be large; an effect the other way counts as inactive or inconclusive; also: potency is read from the fitted curve at half-maximal effect; nearly all actives have a fitted effect of over 55% in size)
# Sequence of UniProt P10635 (P10635 whole entry, looked up): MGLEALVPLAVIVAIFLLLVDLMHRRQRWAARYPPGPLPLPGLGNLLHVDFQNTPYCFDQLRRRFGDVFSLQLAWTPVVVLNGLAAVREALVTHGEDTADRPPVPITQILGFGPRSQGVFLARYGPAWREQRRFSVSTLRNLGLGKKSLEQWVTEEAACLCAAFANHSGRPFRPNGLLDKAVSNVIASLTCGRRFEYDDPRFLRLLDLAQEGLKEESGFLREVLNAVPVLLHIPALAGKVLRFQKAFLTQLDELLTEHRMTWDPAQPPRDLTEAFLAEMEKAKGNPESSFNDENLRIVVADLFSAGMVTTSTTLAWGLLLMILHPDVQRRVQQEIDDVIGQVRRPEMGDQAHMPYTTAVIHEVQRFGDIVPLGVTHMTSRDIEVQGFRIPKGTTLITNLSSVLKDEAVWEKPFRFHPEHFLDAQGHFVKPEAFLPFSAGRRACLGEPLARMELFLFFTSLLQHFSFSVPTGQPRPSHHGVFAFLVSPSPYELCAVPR
# Summary of the method: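 P450-Glo luminescent screen: recombinant CYP2D6 enzyme–proluciferin substrate mix preincubated with compound 10 min at room temperature, then NADPH regeneration added for 1 h at room temperature. Detection reagent added for 20 min; luciferin light read as relative luminescence units.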
# [2] = Primary fluorescence-based thiol-reactive (MSTI) qHTS assay for identification of artifact compounds. (AID 1845221);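 also: potency is read from the fitted curve at half-maximal effect; thiol-reactive compounds lower the probe fluorescence signal; nearly all actives have a fitted effect of over 65% in size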
# Summary of the method: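 First, 4 uM MSTI in 2% DMSO/PBS pH 7.4 was dispensed; next, compounds were added; then plates sat 1 h at room temperature without light. Finally, emission at 598 nm was recorded.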
# KB-3-1 = experiment: Cytotoxic Profiling of Annotated Libraries Using Quantitative High-Throughput Screening (AID 1296008); conditions: Five cell lines viability, CellTiter-Glo ATP luminescence, 48-72 h; max response: stronger effect = lower value; also: nearly all actives have a fitted effect of over 60% in size; also: potency is read from the fitted curve at half-maximal effect; as to max response: % is scaled to controls: 0 for no effect and ±100 for the full control effect
# Summary of the method: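 Compounds were pin-transferred onto cells and incubated 48 or 72 hr at 37 degree Celsius, 95% humidity. CellTiter-Glo was added, plates sat 10 min at room temperature, then ATP-coupled luminescence was imaged as the viability read-out.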
# C33A = experiment: Primary qHTS to identify gynecologic anti-cancer compounds using libraries of approved drugs and bioactive compounds (AID 1345084); conditions: Gynecologic cancer cell panel viability, ATPlite luminescence, 48 h; series mostly up to 57.5 µM; also: nearly all actives have a fitted effect of over 55% in size; also: potency is read from the fitted curve at half-maximal effect; as to activity change, negative = cytotoxicity: % is scaled to controls: 0 for no effect and ±100 for the full control effect
# Summary of the method: (§1)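 48 h compound exposure at 37 C, 5% CO2; five-point qHTS. ATPlite luminescence readout of cell ATP.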
# CAOV3 = experiment: as above; conditions: Gynecologic cancer cell panel viability, ATPlite luminescence, 48 h; activity change, negative = cytotoxicity: at 57.5 µM (top of the series)
# Summary of the method: as §1
# CASKI = experiment: as above; conditions: Gynecologic cancer cell panel viability, ATPlite luminescence, 48 h; series mostly up to 57.5 µM
# Summary of the method: as §1
# Es-2 = experiment: as above; conditions: Gynecologic cancer cell panel viability, ATPlite luminescence, 48 h; series mostly up to 57.5 µM
# Summary of the method: as §1
# HeLa = experiment: as above; conditions: Gynecologic cancer cell panel viability, ATPlite luminescence, 48 h; activity change, negative = cytotoxicity: at 57.5 µM (top of the series)
# Summary of the method: as §1
# Hek293T = experiment: as above; conditions: Gynecologic cancer cell panel viability, ATPlite luminescence, 48 h, control line for the selectivity index; activity change, negative = cytotoxicity: at 57.5 µM (top of the series) unless noted
# Summary of the method: as §1
# JEG-3 = experiment: as above; conditions: Gynecologic cancer cell panel viability, ATPlite luminescence, 48 h; series mostly up to 57.5 µM
# Summary of the method: as §1
# OV90 = experiment: as above; conditions: Gynecologic cancer cell panel viability, ATPlite luminescence, 48 h; series mostly up to 57.5 µM
# Summary of the method: as §1
# PA-1 = experiment: as above; conditions: Gynecologic cancer cell panel viability, ATPlite luminescence, 48 h; series mostly up to 57.5 µM
# Summary of the method: as §1
# SKOV3 = experiment: as above; conditions: Gynecologic cancer cell panel viability, ATPlite luminescence, 48 h; series mostly up to 57.5 µM
# Summary of the method: as §1
# Tov-21-G = experiment: as above; conditions: Gynecologic cancer cell panel viability, ATPlite luminescence, 48 h; activity change, negative = cytotoxicity: at 57.5 µM (top of the series) unless noted
# Summary of the method: as §1
# Tov112D = experiment: as above; conditions: Gynecologic cancer cell panel viability, ATPlite luminescence, 48 h; series mostly up to 57.5 µM
# Summary of the method: as §1
# [3] = system: Zika virus NS2B-NS3 protease (linked construct); experiment: Primary screen NINDS Rhodamine qHTS for Zika virus inhibitors (AID 1347160); conditions: activity change, negative = inhibition: at 57.1 µM (top of the series) unless noted; also: nearly all actives have a fitted effect of over 55% in size; also: potency is read from the fitted curve at half-maximal effect; as to activity change, negative = inhibition: % is scaled to controls: 0 for no effect and ±100 for the full control effect
# Summary of the method: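 In 10 mM Tris-HCl pH 8.0 containing 0.01% Tween 20, linked NS2B-NS3 protease (25 nM final) is exposed to test compounds for 15 min. Cleavage of 1.5 microM Rhodamine110 substrate is tracked by fluorescence over 15 min.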
# [4] = biological target: Glutathione peroxidase 1 (Homo sapiens) (UniProt P07203); experiment: Primary qHTS Assay for Inhibitors of Recombinant Selenoprotein Glutathione Peroxidase 1 (GPX1) (AID 1845191); conditions: activity, negative = inhibition: at 48.8 µM (top of the series); also: nearly all actives have a fitted effect of over 65% in size; also: potency is read from the fitted curve at half-maximal effect; as to activity, negative = inhibition: % is scaled to controls: 0 for no effect and ±100 for the full control effect
# Sequence of UniProt P07203 (P07203 whole entry, looked up): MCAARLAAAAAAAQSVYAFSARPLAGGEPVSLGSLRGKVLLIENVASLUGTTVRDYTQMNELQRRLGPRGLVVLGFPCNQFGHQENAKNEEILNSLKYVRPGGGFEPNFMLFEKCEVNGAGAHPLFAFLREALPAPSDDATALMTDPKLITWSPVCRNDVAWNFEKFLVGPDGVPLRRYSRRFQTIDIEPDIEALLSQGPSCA
# Summary of the method: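 Recombinant GPX1 (10 nM final) was preincubated with compound for 30 min at room temperature, then reacted with 1 mM GSH, 0.5 mM CHP, 0.5 mM NADPH and 100 nM glutathione reductase; NADPH fluorescence (340/450 nm) was read at 0 and 15 min.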
# [5] = qHTS assay to identify inhibitors of the type 1 interferon - major histocompatibility complex class I in skeletal muscle: Counter screen cell viability and HiBit confirmation (AID 1347412); conditions: iHSKM muscle cells + IFN-b, HiBiT or CellTiter-Glo, 24 h; Viability; at 45.9 µM (top of the series); also: % is scaled to controls: 0 for no effect and ±100 for the full control effect; nearly all actives have a fitted effect of over 60% in size
# Summary of the method: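 Human myoblast knock-in line, 4.0 ng/ml IFN-beta stimulation, 24 h compound treatment. Endpoints: HiBiT lytic luminescence (HLA-B level) and CellTiter Glo (ATP). Dosing 12 concentrations, 3-fold steps, 46 uM highest final.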
# [6] = system: Zika virus NS2B-NS3 protease (unlinked complex); experiment: Primary screen GU Rhodamine qHTS for Zika virus inhibitors: Unlinked NS2B-NS3 protease assay (AID 1347159); also: potency is read from the fitted curve at half-maximal effect; nearly all actives have a fitted effect of over 60% in size
# Summary of the method: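 Percent inhibition derives from the 15-min fluorescence change (ex 480, em 540 nm), normalized to no-enzyme and no-inhibitor wells. Reactions contained 25 nM NS2B-NS3 complex and 1.5 microM substrate in 10 mM Tris-HCl pH 8.0.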
# [7] = biological target: Cytochrome P450 2C9 (Homo sapiens) (UniProt P11712); experiment: Cytochrome P450 family 2 subfamily C member 9 (CYP2C9) small molecule antagonists: luciferase biochemical (cell-free) qHTS assay (AID 1645842; active = well fitted curve in the direction sought with a large enough effect in the repeat runs; inconclusive = weak or mixed curves; inactive = no such curve, though single readings can be large; an effect the other way counts as inactive or inconclusive; also: potency is read from the fitted curve at half-maximal effect; nearly all actives have a fitted effect of over 55% in size)
# Sequence of UniProt P11712 (P11712 whole entry, looked up): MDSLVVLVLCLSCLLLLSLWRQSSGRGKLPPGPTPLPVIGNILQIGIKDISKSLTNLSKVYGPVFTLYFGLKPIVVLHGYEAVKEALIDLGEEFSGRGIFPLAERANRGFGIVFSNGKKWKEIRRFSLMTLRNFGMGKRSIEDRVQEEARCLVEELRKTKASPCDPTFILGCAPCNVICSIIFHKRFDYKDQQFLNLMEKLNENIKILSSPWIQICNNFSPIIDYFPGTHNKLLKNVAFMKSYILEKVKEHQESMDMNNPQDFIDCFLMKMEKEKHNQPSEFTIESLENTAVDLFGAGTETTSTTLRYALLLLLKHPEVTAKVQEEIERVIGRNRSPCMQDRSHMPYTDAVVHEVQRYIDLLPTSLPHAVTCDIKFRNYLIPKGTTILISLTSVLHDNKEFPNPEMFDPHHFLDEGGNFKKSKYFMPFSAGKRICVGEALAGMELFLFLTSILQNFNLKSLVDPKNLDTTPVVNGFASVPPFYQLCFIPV
# Summary of the method: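 Luminescence, after 20 min with luciferin detection reagent, reflected CYP2C9 turnover during a 1 h NADPH-driven reaction at 37C. Enzyme-substrate mix contained 0.4% bovine serum albumin and was preincubated with compound 10 min at room temperature.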
# [8] = Primary qHTS for inhibitors of nuclear receptor binding SET domain protein 2 (NSD2) in an isogenic RCH-ACV NSD2 p.E1099K mutant (9B) (AID 1645876); also: potency is read from the fitted curve at half-maximal effect; nearly all actives have a fitted effect of over 70% in size
# [9] = Primary qHTS for inhibitors of nuclear receptor binding SET domain protein 2 (NSD2) in an RCH-ACV wild type WT cells (2C) (AID 1645877); conditions: activity change, negative = cell killing: at 44.9 µM (top of the series) unless noted; also: potency is read from the fitted curve at half-maximal effect; nearly all actives have a fitted effect of over 70% in size
# [10] = P-glycoprotein substrates identified in KB-8-5-11 adenocarcinoma cell line, qHTS therapeutic library screen (AID 1346987); also: nearly all actives have a fitted effect of over 65% in size; also: potency is read from the fitted curve at half-maximal effect
# Summary of the method: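 P-gp-mediated resistance screen: KB-8-5-11 cells treated 72 h with compounds in dose-response. CellTiter-Glo viability.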
# [11] = qHTS to identify inhibitors of the type 1 interferon - major histocompatibility complex class I in skeletal muscle: primary screen against the NCATS Mechanism Interrogation Plate v5.0 (MIPE) Libary (AID 1347411); conditions: iHSKM cells + IFN-b, HiBiT-tagged MHC-I luminescence, 24 h; activity change, negative = inhibition: at 45.8 µM (top of the series);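 also: plate controls were vehicle for no effect and reference inhibitor for full effect; nearly all actives have a fitted effect of over 65% in size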
# Summary of the method: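 Cells were genome-edited human myoblasts carrying a HiBit tag on endogenous HLA-B. They were treated with IFN-beta (4.0 ng/ml) and titrated compounds (top 46 uM) for 24 hrs before lytic HiBiT detection.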
# [12] = biological target: Phospholipid hydroperoxide glutathione peroxidase GPX4 (Homo sapiens) (UniProt P36969); experiment: Primary qHTS Assay for Inhibitors of Recombinant Selenoprotein Glutathione Peroxidase 4 (GPX4) (AID 1845192)
# Sequence of UniProt P36969 (P36969 whole entry, looked up): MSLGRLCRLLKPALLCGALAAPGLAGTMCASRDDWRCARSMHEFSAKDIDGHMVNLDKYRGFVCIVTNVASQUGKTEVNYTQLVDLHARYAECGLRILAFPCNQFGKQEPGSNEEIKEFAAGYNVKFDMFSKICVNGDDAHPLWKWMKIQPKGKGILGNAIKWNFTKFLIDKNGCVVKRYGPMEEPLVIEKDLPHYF
# Summary of the method: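 GR-coupled readout: 100 nM GR, 1 mM GSH, 0.5 mM NADPH; NADPH fluorescence (ex 340/em 450 nm) read at t=0 and after 15 min RT. GPX4 200 nM, preincubated 30 min with compound; substrate 0.5 mM CHP.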
# [13] = Primary redox qHTS assay for identification of artifact compounds. (AID 1845223); conditions: Amplex Red/HRP redox cycling with DTT, fluorescence; redox activity (% of DA3003): at 53.8 µM (top of the series); also: potency is read from the fitted curve at half-maximal effect
# Summary of the method: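 Amplex Red (25 uM) and HRP (250 mU/mL) in HBSS, with compounds for 15 min, then 250 uM DTT for 30 min, room temperature, dark. Fluorescence 525/598 nm read; normalized to DMSO and 10 uM DA3003; Hill fit.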
# Tags tell the direction and shape of the fitted curve.
structure (smiles),measurement,setting,value
CNS(=O)(=O)c1ccccc1Nc1nc(Nc2ccc(N3CCN(C)CC3)cc2OC)ncc1Br,Potency,[1],"inconclusive: 26.8 µM [inhibitor, single point]"
same,Potency,[2],active: 2.67 µM
same,Potency,KB-3-1,active: 4.61 µM
same,Potency,C33A,"inconclusive: 15.8 µM [cytotoxic, partial curve]"
same,Potency,CAOV3,active: 2.24 µM
same,Potency,CASKI,active: 7.94 µM
same,Potency,Es-2,"inconclusive: 17.8 µM [cytotoxic, partial curve, poor fit]"
same,Potency,HeLa,"inconclusive: 6.31 µM [cytotoxic, full curve, poor fit]"
same,Potency,Hek293T,active: 14.1 µM
same,Potency,JEG-3,"inconclusive: 39.8 µM [cytotoxic, single point]"
same,Potency,OV90,"inconclusive: 2.24 µM [cytotoxic, partial curve, poor fit]"
same,Potency,PA-1,active: 2 µM
same,Potency,SKOV3,"inconclusive: 2.82 µM [cytotoxic, partial curve, poor fit]"
same,Potency,Tov-21-G,"inconclusive: 2.24 µM [cytotoxic, full curve, poor fit]"
same,Potency,Tov112D,active: 12.6 µM
Cc1ccc([N+](=O)[O-])cc1S(=O)(=O)N(C)/N=C/c1cnc2ccc(Br)cn12,Potency,[3],inactive
same,Potency,[4],"inactive and inconclusive: 20.5 µM [inhibitor, single point]"
same,Potency,[2],"inconclusive: 1.19 µM [inhibitor, full curve]"
same,Potency,KB-3-1,active: 0.146 µM
same,Potency,C33A,active: 0.316 µM
same,Potency,CAOV3,"inconclusive: 2.51 µM [cytotoxic, partial curve, poor fit]"
same,Potency,CASKI,active: 0.316 µM
same,Potency,Es-2,active: 0.398 µM
same,Potency,HeLa,active: 0.316 µM
same,Potency,Hek293T,active: 0.316 µM
same,Potency,JEG-3,"inconclusive: 0.631 µM [cytotoxic, full curve, poor fit]"
same,Potency,OV90,"inconclusive: 0.355 µM [cytotoxic, full curve, poor fit]"
same,Potency,SKOV3,"inconclusive: 0.355 µM [cytotoxic, full curve, poor fit]"
same,Potency,Tov-21-G,"inconclusive: 0.158 µM [cytotoxic, full curve, poor fit]"
same,Potency,Tov112D,active: 0.355 µM
same,"activity change, negative = inhibition",[5],inactive: -5.21%
O=C(O)/C=C/c1ccc2occc2c1O[C@@H]1O[C@H](CO)[C@@H](O)[C@H](O)[C@H]1O,outcome,KB-3-1,inactive
same,Potency,Es-2,inactive
same,Potency,SKOV3,inactive
O=C(OCC1=CC(O)C2C=CO[C@@H](O[C@@H]3O[C@H](CO)[C@@H](O)[C@H](O)[C@H]3O)C12)c1ccccc1 (some centres undefined),Potency,[6],"inconclusive: 7.94 µM [inhibitor, full curve, poor fit]"
same,Potency,[2],"inconclusive: 8.22 µM [inhibitor, partial curve]"
same,max response,KB-3-1,inactive: 2.99%
same,Potency,Es-2,inactive
CON(C)C(=O)[C@H](O)[C@H](Cc1ccccc1)NC(=O)c1cc2cc(Cl)ccc2[nH]1,Potency,[1],active: 21.3 µM
same,Potency,[7],active: 10.7 µM
same,Potency,[8],"inconclusive: 29 µM [inhibitor, single point]"
same,Potency,[9],"inconclusive: 16.3 µM [inhibitor, partial curve, poor fit]"
same,max response,KB-3-1,inactive: 5.78%
same,Potency,CASKI,inactive
same,Potency,SKOV3,inactive
CCCNC(C)C(=O)Nc1c(C)csc1C(=O)OC (centres undefined),Potency,[1],"inconclusive: 27.5 µM [inhibitor, partial curve, poor fit]"
same,max response,KB-3-1,inactive: -16.9%
same,Potency,CAOV3,inactive
CC[C@H](NC(=O)[C@H](CS(=O)(=O)CC1CC1)N[C@@H](c1ccc(F)cc1)C(F)(F)F)C(=O)C(=O)NC1CC1,Potency,[10],inactive
same,Potency,[11],inactive
same,Potency,[9],"inconclusive: 8.17 µM [inhibitor, partial curve, poor fit] and inconclusive: 11.8 µM [inhibitor, partial curve, poor fit]"
same,Potency,[12],inactive
same,max response,KB-3-1,inactive: 3.82%
same,Potency,CASKI,inactive
COC(=O)c1cc2c(C(F)(F)F)cc(-c3ccccc3)cc2n1O,Potency,[10],"inconclusive: 29.1 µM [inhibitor, single point]"
same,Potency,[6],active: 12.6 µM
same,Potency,[3],active: 15.8 µM
same,Potency,[1],"inconclusive: 23.9 µM [inhibitor, single point]"
same,Potency,[7],"inconclusive: 26.8 µM [inhibitor, single point]"
same,Potency,[8],"inconclusive: 20.5 µM [inhibitor, single point]"
same,Potency,[9],"inconclusive: 25.8 µM [inhibitor, single point]"
same,Potency,[2],active: 2.67 µM
same,Potency,KB-3-1,"inconclusive: 23.1 µM [inhibitor, single point]"
same,Potency,CAOV3,"inconclusive: 39.8 µM [rising, single point]"
O=C(OC[C@H]1O[C@@H](Oc2ccccc2COC(=O)C2(O)C=CCCC2O)[C@H](O)[C@@H](O)[C@@H]1O)c1ccccc1 (some centres undefined),Potency,[6],"inconclusive: 17.8 µM [inhibitor, partial curve]"
same,Potency,[3],"inconclusive: 17.8 µM [inhibitor, single point]"
same,Potency,[2],active: 5.19 µM
same,Potency,[13],"inconclusive: 13 µM [activator, partial curve, poor fit]"
same,max response,KB-3-1,inactive: 1.49%
same,Potency,CAOV3,inactive
same,Potency,PA-1,inactive
same,Potency,SKOV3,inactive
same,Potency,Tov-21-G,inactive
same,Potency,Tov112D,inactive
